# Reference: the supplement of paper PMC7826260
# The list shows a part of the results. One pool of 16,384 single-stranded DNAs met each Rep nickase domain in vitro for 1 h at 37 °C with 3 µM enzyme; only the middle of the 90-letter strands is printed. Numbers give uncut DNA relative to the enzyme-free pool, as log2; more negative means more cut, near 0 not cut, and no call is made. Counts are relative to all reads; uncut strands gain when others are lost, and binding without cutting may add a little.
# Tests used:
# Assay in all cases: uncleaved DNA left, log2 of reads against the no-enzyme library (log2 ratio); higher = less cleavage (more negative = more Rep cleavage of the k-mer); sequences stand for … in CTCGTCCG…ACCGGAGA
# [1] = test system: T1, Rep nickase domain of Muscovy duck circovirus
# T1 sequence (Rep 1-111, printed without the tag): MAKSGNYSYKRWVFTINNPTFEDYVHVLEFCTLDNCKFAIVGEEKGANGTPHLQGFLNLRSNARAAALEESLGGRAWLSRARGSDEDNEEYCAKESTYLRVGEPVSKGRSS
# Experimental: (§1)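 A pool of 90-nt single-stranded DNAs with seven random bases just before the constant AC of the nick site (name = the seven bases) was cut by 3 µM recombinant His6-SUMO-tagged Rep nickase domain (300 nM DNA, 50 mM HEPES pH 8.0, 50 mM NaCl, 1 mM MnCl2, 1 h, 37 °C, three replicates). Uncut DNA was amplified and sequenced.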
# [2] = test system: T2, Rep nickase domain of banana bunchy top virus
# T2 sequence (Rep 1-94, printed without the tag): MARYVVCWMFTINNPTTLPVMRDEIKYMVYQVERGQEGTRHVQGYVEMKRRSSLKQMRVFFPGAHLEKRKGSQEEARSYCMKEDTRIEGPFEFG
# Experimental: as §1
# [3] = test system: T3, Rep nickase domain of cabbage leaf curl virus
# T3 sequence (Rep 1-116, printed without the tag): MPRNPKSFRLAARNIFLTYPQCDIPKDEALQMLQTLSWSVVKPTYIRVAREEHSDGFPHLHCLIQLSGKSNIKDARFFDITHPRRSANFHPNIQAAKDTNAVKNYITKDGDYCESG
# Experimental: as §1
# [4] = test system: T4, Rep nickase domain of chickpea chlorotic dwarf virus
# T4 sequence (Rep 1-124, printed without the tag): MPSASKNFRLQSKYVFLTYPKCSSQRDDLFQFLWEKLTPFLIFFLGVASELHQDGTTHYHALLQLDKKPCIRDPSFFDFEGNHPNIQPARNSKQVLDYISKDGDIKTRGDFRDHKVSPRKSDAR
# Experimental: as §1
# [5] = test system: T5, Rep nickase domain of faba bean necrotic yellows virus
# T5 sequence (Rep 1-98, printed without the tag): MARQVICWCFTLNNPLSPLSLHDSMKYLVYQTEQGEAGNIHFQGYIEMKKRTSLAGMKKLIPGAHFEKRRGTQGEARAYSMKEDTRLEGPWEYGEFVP
# Experimental: as §1
# [6] = test system: T6, Rep nickase domain of maize striate mosaic virus
# T6 sequence (Rep 1-117, printed without the tag): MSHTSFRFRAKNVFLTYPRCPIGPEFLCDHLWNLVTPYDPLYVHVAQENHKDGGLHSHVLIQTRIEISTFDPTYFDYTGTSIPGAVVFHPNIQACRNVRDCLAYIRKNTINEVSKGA
# Experimental: as §1
# [7] = test system: T7, Rep nickase domain of porcine circovirus 2
# T7 sequence (Rep 2-116, printed without the tag): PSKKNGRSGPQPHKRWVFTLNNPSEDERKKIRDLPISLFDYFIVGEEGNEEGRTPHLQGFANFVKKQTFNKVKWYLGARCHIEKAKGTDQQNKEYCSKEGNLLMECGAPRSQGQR
# Experimental: as §1
# [8] = test system: T8, Rep nickase domain of tomato golden mosaic virus
# T8 sequence (Rep 1-124, printed without the tag): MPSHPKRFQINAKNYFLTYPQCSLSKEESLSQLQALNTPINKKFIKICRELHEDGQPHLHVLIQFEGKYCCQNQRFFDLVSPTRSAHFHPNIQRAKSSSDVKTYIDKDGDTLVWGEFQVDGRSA
# Experimental: as §1
# [9] = test system: T9, Rep nickase domain of tomato yellow leaf curl virus
# T9 sequence (Rep 1-136, printed without the tag): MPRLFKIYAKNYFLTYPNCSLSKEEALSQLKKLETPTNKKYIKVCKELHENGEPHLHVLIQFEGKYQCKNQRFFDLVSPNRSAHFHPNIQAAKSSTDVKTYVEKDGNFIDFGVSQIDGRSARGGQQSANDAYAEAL
# Experimental: as §1
# [10] = test system: T10, Rep nickase domain of wheat dwarf virus
# T10 sequence (Rep 1-137, printed without the tag): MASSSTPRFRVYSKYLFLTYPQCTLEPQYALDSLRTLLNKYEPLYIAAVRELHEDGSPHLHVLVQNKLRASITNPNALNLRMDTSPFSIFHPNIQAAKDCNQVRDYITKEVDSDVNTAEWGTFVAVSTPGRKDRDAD
# Experimental: as §1
Sequence,uncleaved DNA left (log2) [1],uncleaved DNA left (log2) [2],uncleaved DNA left (log2) [3],uncleaved DNA left (log2) [4],uncleaved DNA left (log2) [5],uncleaved DNA left (log2) [6],uncleaved DNA left (log2) [7],uncleaved DNA left (log2) [8],uncleaved DNA left (log2) [9],uncleaved DNA left (log2) [10]
GAAGTCC,0.0747,0.0923,0.247,0.335,0.0389,0.726,0.066,0.0388,0.127,0.117
AAGCCCC,-0.0635,-0.145,0.0534,-0.391,-0.101,-0.0023,-0.00457,-0.117,-0.0605,0.0363
CAGTGTC,-0.0673,-0.0904,-0.371,-0.483,-0.232,-0.979,-2.67,0.0375,-0.0271,0.156
GATACTA,0.0606,0.101,0.153,0.0982,0.152,0.764,0.00934,0.118,0.117,0.202
GCACGCA,-0.115,-0.0327,-0.324,-0.183,-0.102,-0.539,-0.0789,-0.0537,-0.138,-0.174
TAAGCAC,-0.00586,-0.121,-0.264,-0.844,-0.113,-0.81,-0.0395,-0.0782,-0.0837,-0.185
CTGATAC,-0.128,-0.00799,-0.0374,-0.572,-0.00328,-0.605,-0.236,0.0362,-0.0899,-0.0451
GCCGGGC,-0.0362,-0.0101,0.604,0.978,-0.0429,1.54,0.193,0.134,-0.0519,0.0604
TATGCGC,0.049,0.0451,-0.736,0.459,0.0439,-0.906,0.189,-0.0613,0.0823,-0.00471
TTAGCAA,0.0633,0.0754,0.199,1.01,-0.0748,-0.107,-0.00592,0.0526,0.0517,0.168
AGGGCGT,0.14,0.0427,0.0791,0.429,0.124,0.0754,0.209,0.115,-0.00695,0.0812
AATATGG,0.0764,0.0112,-0.103,0.193,0.0585,-0.714,0.102,0.0528,-0.0298,0.0167
ATAAATA,0.17,0.237,0.0687,-1.52,0.23,-0.521,0.0968,0.255,0.181,0.2
CAGATAA,-0.0176,0.123,-0.174,-0.381,0.0234,-0.5,-0.151,0.02,0.0571,0.00461
AGGTGTC,-0.0497,-0.0475,0.0196,0.319,-0.0199,0.228,0.0155,-0.0238,-0.108,-0.0373
CACCCTG,-0.128,0.0534,-0.0475,-0.0436,0.0648,-0.0292,-0.24,-0.0235,0.00803,0.00764
AATTAAA,-0.409,-0.178,-0.167,-0.734,-0.0226,-0.722,-0.629,0.0321,-0.0156,-0.048
AGGTCCA,-0.0227,0.0737,0.117,0.0176,0.0293,0.575,-0.0632,-0.0573,0.0704,0.154
AGCGGGG,0.074,0.159,0.4,0.972,0.0151,1.62,0.216,0.228,0.101,0.111
CTGCTCA,0.0162,0.0518,-0.118,-0.85,-0.00609,-0.788,-0.2,0.0247,0.0646,-0.00169

Sequence,uncleaved DNA left (log2) [1],uncleaved DNA left (log2) [2],uncleaved DNA left (log2) [3],uncleaved DNA left (log2) [4],uncleaved DNA left (log2) [5],uncleaved DNA left (log2) [6],uncleaved DNA left (log2) [7],uncleaved DNA left (log2) [8],uncleaved DNA left (log2) [9],uncleaved DNA left (log2) [10]
AAGGACA,-0.0328,0.0682,0.295,0.677,-0.0109,0.823,0.0377,0.0141,-0.0341,0.0392
CACCGGA,0.0149,0.0962,0.0368,0.362,0.0523,-0.00741,0.0738,0.0528,0.0912,0.0243
CTGACGG,-0.0505,-0.0486,0.122,0.773,-0.1,0.895,0.0276,0.0135,-0.158,-0.0817
CCAGTAC,0.034,0.0297,-0.0583,-0.615,-0.0477,-0.671,-0.0245,0.0382,-0.0752,-0.0817
TTCAGTC,0.0422,0.0555,0.221,-0.00056,0.049,-0.687,0.0756,-0.0827,0.0665,-0.00293
CGGGAAC,0.109,-0.0257,0.683,1.74,-0.0432,2.11,0.0944,-0.0127,-0.0776,0.122
TACTTTG,0.000886,-0.0157,-0.534,-1.05,0.00902,-1.02,-0.208,-0.107,0.0236,-0.051
GGCGACT,-0.048,-0.0368,0.0714,0.838,-0.0436,1.77,0.0685,0.0212,-0.227,-0.00316
GTAGCGA,-0.108,-0.11,-0.648,-0.442,-0.0408,-0.803,0.103,-0.187,-0.0281,-0.126
CTGTTCT,-1.31,-0.361,-0.0695,-1.92,-0.278,-0.696,-3.16,-0.251,-0.156,-0.181
ATGACAG,0.093,0.0257,-0.175,0.511,0.104,-0.555,0.254,0.115,0.112,0.178
ACATACA,-0.0559,-0.0327,-0.258,-1.89,0.0528,-0.848,-0.0366,0.0383,-0.12,-0.0643
CATCGAC,0.0313,0.00705,-0.184,-0.0472,0.0729,-0.431,0.0405,0.0612,-0.0244,-0.104
CCTAAGA,-0.137,-0.0506,-0.227,-0.236,-0.0822,-1.13,0.083,0.0129,-0.0519,-0.18
TCGTGCA,-0.0416,-0.0905,-0.502,-0.773,-0.0706,-1.09,-0.876,-0.0189,-0.0202,-0.285
CACAATC,0.0831,-0.0143,-0.187,-0.258,-0.0299,-0.466,0.0941,0.0041,0.0849,0.113
CCGTCTG,-0.044,-0.0536,-0.0457,0.604,-0.0512,1.22,-0.112,-0.0624,-0.151,0.0839
CCTAAAA,-0.146,-0.0427,-0.174,-0.124,-0.112,-0.839,-0.0548,-0.13,-0.128,-0.0661
AAGAGTG,-0.0125,0.081,-0.11,0.169,0.0954,0.248,0.142,0.102,-0.0614,-0.00205
TGCCCAC,-0.13,0.051,0.176,0.425,-0.0467,0.616,-0.0538,-0.151,-0.000608,-0.00127

Sequence,uncleaved DNA left (log2) [1],uncleaved DNA left (log2) [2],uncleaved DNA left (log2) [3],uncleaved DNA left (log2) [4],uncleaved DNA left (log2) [5],uncleaved DNA left (log2) [6],uncleaved DNA left (log2) [7],uncleaved DNA left (log2) [8],uncleaved DNA left (log2) [9],uncleaved DNA left (log2) [10]
CACCGAA,0.00923,0.039,-0.0873,-0.373,0.0656,-0.599,0.0811,0.0386,-0.143,-0.183
CGGTCAA,-0.145,-0.0733,0.353,0.694,-0.0446,0.645,-0.0403,0.0417,0.0968,0.19
ACATGCG,-0.0852,-0.0605,0.446,1.79,-0.0271,2.13,0.0493,-0.1,-0.0209,0.0213
CTAGGCA,-0.0686,0.0198,0.0207,0.107,0.0629,-0.507,0.0608,0.0407,-0.0106,-0.0593
CCCCTCC,-0.0994,-0.177,0.0507,0.0396,-0.0727,0.494,-0.171,-0.039,-0.141,-0.155
TCACCAC,-0.041,-0.0287,0.00946,-0.74,-0.000707,-0.451,-0.213,0.0161,-0.0188,0.0257
AAAATAA,0.0183,0.148,-0.183,-0.555,0.0269,-0.557,0.136,0.252,-0.0383,0.139
GACCCTT,-0.0188,0.048,0.795,1.33,0.122,2.13,0.0419,-0.0167,-0.0755,0.22
TGTCAGG,-0.0545,-0.0246,0.385,1.22,0.016,1.45,0.101,0.145,-0.0931,0.0727
CTGCACT,0.0347,-0.0353,-0.295,-1.67,-0.133,-0.741,-0.331,-0.199,-0.099,-0.096
TAACTCT,-0.0258,-0.0311,-3.86,-3.65,0.0423,-2.58,-0.692,-1.62,0.00621,-3.67
GATTCGT,-0.763,-0.425,-0.156,-0.495,0.141,-0.703,-2.84,-0.0251,0.139,0.157
AGACTCA,0.0317,0.0713,0.507,1.21,0.0872,1.87,0.0107,0.068,0.103,-0.0618
CCATGAG,0.0507,-0.0939,-0.604,0.651,-0.0527,-0.416,0.154,-0.0276,-0.0156,-0.0672
CTTGAAA,0.0122,-0.118,0.0236,-0.146,-0.142,-0.695,0.0297,0.0587,-0.122,-0.0244
TATATCT,-0.869,-1.68,-1.29,-2.85,-0.015,-0.379,-2.22,-0.0989,0.239,-0.09
GTCAGCT,-0.0242,0.0164,0.315,1.12,0.0178,1.17,0.0603,0.0739,0.0158,0.0205
TTACTGA,0.0761,-0.125,0.00972,0.0354,-0.0611,1.14,0.0464,-0.0856,-0.163,-0.141
TTTCTGC,-0.0695,-0.0915,-0.527,-0.788,-0.0559,-1.2,-0.0218,-0.232,0.00895,-0.118
AGAGACC,-0.0364,-0.00698,0.0529,0.808,-0.0151,0.902,0.0975,-0.00682,0.000328,0.0313
